Measured values reported in patent publication US20220153839A1 (NBE THERAPEUTICS, published 2022).

Tests used:
Assay in all cases: cell-based or functional assay
[1] = target: T1, human ROR1, full length, on cells (human, UniProt Q01973 30-937)
[2] = target: T1, human ROR1, full length, on cells; remark: listed apart in the source
[3] = target: T1, human ROR1, full length, on cells; remark: listed apart in the source
[4] = target: T1, human ROR1, full length, on cells; remark: listed apart in the source
[5] = target: T1, human ROR1, full length, on cells; remark: listed apart in the source
[6] = target: T1, human ROR1, full length, on cells; remark: listed apart in the source

T1 sequence (Q01973 30-937): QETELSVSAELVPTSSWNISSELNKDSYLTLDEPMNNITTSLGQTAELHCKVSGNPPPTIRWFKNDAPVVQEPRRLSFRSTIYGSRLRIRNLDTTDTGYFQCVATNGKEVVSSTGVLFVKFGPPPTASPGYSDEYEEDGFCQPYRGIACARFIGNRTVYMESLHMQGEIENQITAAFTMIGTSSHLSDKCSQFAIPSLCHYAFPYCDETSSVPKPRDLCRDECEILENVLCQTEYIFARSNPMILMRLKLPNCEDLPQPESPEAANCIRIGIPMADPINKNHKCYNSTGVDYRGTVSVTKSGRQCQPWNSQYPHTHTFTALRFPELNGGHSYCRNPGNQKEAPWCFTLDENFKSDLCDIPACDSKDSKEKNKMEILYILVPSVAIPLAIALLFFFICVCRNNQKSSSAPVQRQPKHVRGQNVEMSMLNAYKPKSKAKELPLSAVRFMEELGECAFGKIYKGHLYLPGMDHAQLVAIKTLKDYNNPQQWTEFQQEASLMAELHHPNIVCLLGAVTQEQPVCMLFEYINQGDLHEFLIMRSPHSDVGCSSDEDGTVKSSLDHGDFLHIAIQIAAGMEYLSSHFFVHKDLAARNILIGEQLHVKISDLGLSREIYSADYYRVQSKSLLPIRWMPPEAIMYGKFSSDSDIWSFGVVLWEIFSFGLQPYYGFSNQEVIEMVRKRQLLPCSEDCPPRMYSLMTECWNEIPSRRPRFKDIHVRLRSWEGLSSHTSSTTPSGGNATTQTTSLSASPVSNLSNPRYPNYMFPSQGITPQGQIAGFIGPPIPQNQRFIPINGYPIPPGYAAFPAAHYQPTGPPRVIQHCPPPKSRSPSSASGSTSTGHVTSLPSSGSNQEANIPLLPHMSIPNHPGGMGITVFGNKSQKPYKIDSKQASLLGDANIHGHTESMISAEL

Row | IC50 (read off the curve) [6] | Binder | IC50 of in vitro cell killing, 697 cells [1] | IC50 of in vitro cell killing, HS 578T cells (hROR1 status positive) [2] | IC50 of in vitro cell killing, MDA-MD-468 cells (hROR1 status positive) [2] | IC50 (cell killing of Kasumi-2 cells, luminescence) [3] | IC50 (cell killing of 697 cells, luminescence) [4] | IC50 of in vitro cell killing, hROR1-overexpressing EMT-6 [5]
1 |  | 2A2-G5-PNU antibody drug conjugate (other, Gly5-EDA-PNU joined by sortase to the C-terminal G5SLPETG tag; Gly5-EDA-PNU joined by sortase to the C-terminal LPETG tag) heavy: QVQLQQSGAELVRPGASVTLSCKASGYTFSDYEMHWVIQTPVHGLEWIGAIDPETGGTAYNQKFKGKAILTADKSSSTAYMELRSLTSEDSAVYYCTGYYDYDSFTYWGQGTLVTVSA[no letters for human IgG1 constant region]LPETGGWSHPQFEK light: DIVMTQSQKIMSTTVGDRVSITCKASQNVDAAVAWYQQKPGQSPKLLIYSASNRYTGVPDRFTGSGSGTDFTLTISNMQSEDLADYFCQQYDIYPYTFGGGTKLEIKRTVAAPSVFIFPPSDEQLKSGTASVVCLLNNFYPREAKVQWKVDNALQSGNSQESVTEQDSKDSTYSLSSTLTLSKADYEKHKVYACEVTHQGLSSPVTKSFNRGECGGGGSLPETGGWSHPQFEK | 0.038 µg/mL | 1.78 µg/mL | 0.456 µg/mL | 0.0012 µg/mL | 0.118 µg/mL | 
2 |  | Ms961-G5-PNU (adc396) antibody drug conjugate (other, Gly5-EDA-PNU joined by sortase to the C-terminal G5SLPETG tag; Gly5-EDA-PNU joined by sortase to the C-terminal LPETG tag) heavy: EIQLQQSGPVLVKPGASVKVSCKASGYAFTAYNIHWVRQSHGKRLEWIGSFDPYDGGSSYNQKFKDKATLTVDKSSTTAYMHLNSLTSEDSAVYYCARGWYYFDYWGHGTTLTVSS[no letters for human IgG1 constant region]LPETGGWSHPQFEK light: DVQITQSPSYLAASPGETITINCRASKSISKYLAWYQEKPGKTNKLLIYSGSTLQSGIPSRFRGSGSGTDFTLTISSLEPEDFAMYYCQQHDESPYTFGEGTKLEIKRTVAAPSVFIFPPSDEQLKSGTASVVCLLNNFYPREAKVQWKVDNALQSGNSQESVTEQDSKDSTYSLSSTLTLSKADYEKHKVYACEVTHQGLSSPVTKSFNRGECGGGGSLPETGGWSHPQFEK |  |  |  |  |  | 0.0115 µg/mL
3 | ~0.01 µg/mL | R12-G5-PNU antibody drug conjugate (other, Gly5-EDA-PNU joined by sortase to the C-terminal G5SLPETG tag; Gly5-EDA-PNU joined by sortase to the C-terminal LPETG tag) heavy: QEQLVESGGRLVTPGGSLTLSCKASGFDFSAYYMSWVRQAPGKGLEWIATIYPSSGKTYYATWVNGRFTISSDNAQNTVDLQMNSLTAADRATYFCARDSYADDGALFNIWGPGTLVTISS[no letters for human IgG1 constant region]LPETGGWSHPQFEK light: ELVLTQSPSVSAALGSPAKITCTLSSAHKTDTIDWYQQLQGEAPRYLMQVQSDGSYTKRPGVPDRFSGSSSGADRYLIIPSVQADDEADYYCGADYIGGYVFGGGTQLTVTGQPKAAPSVTLFPPSSEELQANKATLVCLISDFYPGAVTVAWKADSSPVKAGVETTTPSKQSNNKYAASSYLSLTPEQWKSHKSYSCQVTHEGSTVEKTVAPTECSGGGGSLPETGGWSHPQFEK | 0.0721 µg/mL | 3.5 µg/mL | 0.349 µg/mL | 0.0018 µg/mL | 0.16 µg/mL | 
4 |  | R11-G5-PNU (adc041) antibody drug conjugate (other, Gly5-EDA-PNU joined by sortase to the C-terminal G5SLPETG tag; Gly5-EDA-PNU joined by sortase to the C-terminal LPETG tag) heavy: QSVKESEGDLVTPAGNLTLTCTASGSDINDYPISWVRQAPGKGLEWIGFINSGGSTWYASWVKGRFTISRTSTTVDLKMTSLTTDDTATYFCARGYSTYYGDFNIWGPGTLVTISS[no letters for human IgG1 constant region]LPETGGWSHPQFEK light: ELVMTQTPSSTSGAVGGTVTINCQASQSIDSNLAWFQQKPGQPPTLLIYRASNLASGVPSRFSGSRSGTEYTLTISGVQREDAATYYCLGGVGNVSYRTSFGGGTEVVVKRTVAAPSVFIFPPSDEQLKSGTASVVCLLNNFYPREAKVQWKVDNALQSGNSQESVTEQDSKDSTYSLSSTLTLSKADYEKHKVYACEVTHQGLSSPVTKSFNRGECGGGGSLPETGGWSHPQFEK | 0.47 µg/mL |  |  |  |  | 
